The results in this text go back to ChEMBL document CHEMBL4888484, “Replenishing the malaria drug discovery pipeline: Screening and hit evaluation of the MMV Hit Generation Library 1 (HGL1) against asexual blood stage Plasmodium falciparum ,using a nano luciferase reporter read-out” (2022).

Among all 150,000 compounds or so, about 540 (0.36%) showed an effect of 50% or more. Some of the results follow.

In general, % Inhibition refers to the relative decrease from the control value, in per cent.

This test relates to Plasmodium falciparum. As to the kind of experiment: Primary screen in NF54 nanoGlo assay, in single point, at 2uM, 72h; a lower Z score goes with more inhibition. The test is classed as functional, Erythrocyte. As to conditions: timepoint 72 hour.
In the case of `O=C(NCc1cccnc1Oc1ccc(F)c(F)c1)c1n[nH]cc1Cl`, the “% Inhibition” value was -1% and the Z score was determined as 0.22.

Consider `Cc1cc(=O)c(C(=O)N2CCCCCC2)c(Cc2cccc(F)c2)n1CCCN1CCOCC1`, for which the “% Inhibition” value was -4% and the Z score is 0.47.

Consider `CCN1C(=O)CC(CC(=O)N(CC2CCC2)CC2CCCO2)(c2cccc(C(F)(F)F)c2)C1=O` (stereo not drawn), for which the “% Inhibition” value amounted to 6% and the Z score is recorded as -1.17. `CC[C@@H](c1ccccn1)N(C)Cc1nnc(C)s1`: the “% Inhibition” value was -5% and the Z score was found to be 0.82. The matching figures for `COC(=O)[C@@H](OC(=O)c1ccnc(C)n1)C(C)C`: 5% and -0.78. Turning to `CCC(O)C1CCCCN1Cc1cnn(C(C)(C)C)c1` (stereo not drawn), the “% Inhibition” value is 0% and the Z score amounted to 0.01. On to `O=C(CNC(=O)c1cccc(Cl)c1)NCc1cscn1`, for which the “% Inhibition” value amounted to 2% and the Z score is -0.27. For `Cc1n[nH]c(C)c1CC(=O)N[C@H]1CCCNC1=O`, the “% Inhibition” value stood at 6% and the Z score is given as -0.89.

Take `O=C(Nc1cc(C(F)(F)F)cc(C2CC2)n1)N[C@H]1CCN(C2CCC2)C1=O`: the “% Inhibition” value is -4% and the Z score is reported as 0.5. In the case of `CC(C)c1ocnc1Cn1ccnc1-c1cncc(Br)c1`, the “% Inhibition” value is listed as -9% and the Z score was found to be 0.96.

`C[C@@H](CN1CCOCC1)C(=O)N1CCC(Oc2ccc(Cl)cc2)CC1`: the “% Inhibition” value is recorded as -13% and the Z score was 1.29. The matching figures for `CCOC(=O)CNc1nc(NCC(=O)OCC)nc(OC)n1`: -8% and 0.92. Take `NC(=O)CN1CCOc2cc(Br)c(Cl)cc21`: the “% Inhibition” value came out at 28% and the Z score is listed as -3.72.

With `Cc1nc(NC(=O)[C@H](C)N(C)Cc2nccn2C(F)F)sc1C`, the “% Inhibition” value is -6% and the Z score came to 0.79.

For `CC(c1ccc(Cl)cc1Cl)N(C)C(=O)C1CC12CCNCC2` (stereo not drawn), the “% Inhibition” value is -21% and the Z score came to 3.92.

Take `COc1ncccc1C(=O)NC1CC2CCC(C1)N2S(C)(=O)=O` (stereo not drawn): the “% Inhibition” value is 8% and the Z score was -1.51. For the molecule `O=C(Cc1ccc(Cl)cc1)N1CCC[C@@](F)(C(=O)NCc2ccncc2)C1`, the “% Inhibition” value is -11% and the Z score amounted to 0.93. As for `Cc1cccnc1NC(=O)C1=COCCO1`, the “% Inhibition” value is recorded as -10% and the Z score turned out to be 1.23.

On to `CCCC(=O)N[C@H]1CCCN(c2nc(C)ns2)C1`, for which the “% Inhibition” value was 1% and the Z score was -0.19. Take `O=C1Nc2cc(-c3cccc4cc[nH]c34)ccc2C12CCOCC2`: the “% Inhibition” value stood at 1% and the Z score is given as -0.1.

Regarding `CCn1ccnc1CN1CCc2[nH]cnc2[C@@H]1c1cccn1-c1ncccn1`, the “% Inhibition” value turned out to be 2% and the Z score was -0.18. `O[C@@H](CNc1ccc2ccc(F)cc2n1)C1CCOCC1`: the “% Inhibition” value is 14% and the Z score was -1.85. Consider `O=C(C1CCC1)N(Cc1ccc(F)cc1)C[C@H]1CC(c2ccccc2)=NO1`, for which the “% Inhibition” value is on record as 5% and the Z score was -0.41.

With `CC1(CNC(=O)C2CC=CC2)CCN(C(=O)OC(C)(C)C)CC1`, the “% Inhibition” value is on record as -9% and the Z score was found to be 1.13. The matching figures for `CC1(C)CCN(C(=O)C2=CCCCO2)C1`: -18% and 1.9. For `CCNc1cc(Br)ccc1N` the same measures were 0% and -0.07. For `Cc1nc(NC(=O)NC(C)C)sc1C` the same measures were -4% and 0.69. For `O=S(=O)(c1ccc(Cl)cc1)n1cc2c(n1)NCCC2`, the Z score stood at 0.11.

With `O=C(Nc1ccnn1Cc1ccc(Cl)cc1)C1CCN(S(=O)(=O)c2ccc(F)c(F)c2)CC1`, the “% Inhibition” value was -7% and the Z score is listed as 0.76. For `CC(C)Oc1ccc(CNS(=O)(=O)c2ccc3c(c2)OC[C@@H](C(=O)N2CCCCC2)O3)cc1` the same measures were -23% and 3.89. On to `CCOC(=O)c1nnsc1N1CCCC1`, for which the “% Inhibition” value came out at 10% and the Z score is -1.22.

Consider `O=C1N(Cc2ccc(F)cn2)C(=O)C23CC(CN12)C3`, for which the “% Inhibition” value came out at 3% and the Z score is listed as -0.43. As for `CN(C)S(=O)(=O)c1ccc2c(c1)nnn2CCCC(=O)NC1CCCCCCC1`, the “% Inhibition” value was -15% and the Z score was 2.18. For `CCC(C)(C)c1ccc(C(=O)N(C)c2nncn2C)cc1`, the “% Inhibition” value was -4% and the Z score is listed as 0.53. In the case of `CCN1CCC[C@H](CN2CCc3[nH]nc(C(C)C)c3C2)C1`, the “% Inhibition” value was -7% and the Z score was determined as 1.14. Turning to `O=S1(=O)CCN(c2ccc3cc[nH]c3n2)CC1`, the “% Inhibition” value is given as -4% and the Z score turned out to be 0.72.

With `COCC(=O)N1CCC[C@@]2(CCN(Cc3cccc(C(=O)OC)n3)C2)C1`, the “% Inhibition” value was -1% and the Z score is reported as 0.07.

As to `Cc1cccc(C(=O)N2CCN3C(=O)CC[C@H]3C2)c1O`, the “% Inhibition” value was -12% and the Z score was determined as 1.9. In the case of `Oc1ccc(-c2nccn2C[C@H](O)COC2CCCCC2)cc1`, the “% Inhibition” value came to 5% and the Z score is listed as -0.77. On to `CN(C(=O)CCC1CCCO1)C1CCS(=O)(=O)C1` (stereo not drawn), for which the “% Inhibition” value is recorded as -4% and the Z score was 0.74. With `CCO/C(=N/C(=O)c1ccc(C(F)(F)F)cc1)NCCN1CCCCC1`, the “% Inhibition” value was -5% and the Z score turned out to be 0.84. The matching figures for `CCc1ccc(CN2CC[C@H](S(=O)(=O)N3CCCC3)C2)o1`: -6% and 0.81. For `Cc1ccc(-c2ccc(CN3C[C@@H](CN4CCCC4)[C@@H](CO)C3)o2)cc1` the same measures were -15% and 2.63. For `CC[C@H](NCc1ccc(OC(F)F)c(F)c1)c1ncc(C)s1` the same measures were 1% and -0.06.

On to `Cc1nc(Cn2cc(-c3cnn(-c4ccc(C)c(C)c4)c3)nn2)no1`, for which the “% Inhibition” value was -28% and the Z score stood at 3.63. Consider `COc1ccc(-c2cc3nc(C)cc(N4CCN(C/C=C/c5ccccc5)CC4)n3n2)cc1OC`, for which the “% Inhibition” value is given as 51% and the Z score is on record as -9.31. As for `CCC[C@H](NC(=O)c1cccc(-n2cccn2)n1)c1nnn[nH]1`, the “% Inhibition” value is given as 17% and the Z score is reported as -1.97. As to `O=S(=O)(C1CC1)N1CC[C@H](Oc2cc(N3CCOCC3)ncn2)C1`, the “% Inhibition” value is 0% and the Z score is listed as 0.03. For the molecule `Cc1cc(Cl)ccc1OCC(=O)NO`, the “% Inhibition” value was determined as 0% and the Z score is reported as -0.04.

Turning to `Cc1ncncc1C(=O)N1CC[C@H](O)CC(C)(C)C1`, the “% Inhibition” value is on record as -7% and the Z score is reported as 0.64.

Regarding `CCN(C(=O)c1ccnc(C)n1)C1CCCCC1C` (stereo not drawn), the “% Inhibition” value is -4% and the Z score stood at 0.4.

`COC(=O)c1cc(CNc2nc3ccccc3o2)c[nH]1`: the “% Inhibition” value was -5% and the Z score is listed as 0.71.

For `COC1(CNC(=O)c2noc(C)n2)CCCCCC1`, the “% Inhibition” value is -1% and the Z score is on record as 0.16.

In the case of `O=C1OC2(CCN(C(=O)c3c(F)cccc3Cl)CC2)c2ccccc21`, the “% Inhibition” value was -6% and the Z score is 1.16. For `CCN(C(=O)c1ncc(Br)s1)C1CCCC1`, the “% Inhibition” value turned out to be 7% and the Z score is given as -0.58. As to `Cc1nc(NCc2ccc(N3CCC[C@H](C)C3)cc2)c2c(C)noc2n1`, the “% Inhibition” value was -5% and the Z score is 0.7. For the molecule `C[C@H](NC(=O)NCc1cccnc1N1CCOCC1)c1cc2ccccc2o1`, the “% Inhibition” value is -11% and the Z score amounted to 1.05. The matching figures for `COCCN(C(=O)c1ccc(C)c(OC)c1)[C@@H](C)C(N)=O`: -5% and 0.89.

As to `COc1ccc(-c2nc(-c3ccc(OC)cc3)c(C)c(C#Cc3ccccc3)c2C)cc1`, the “% Inhibition” value is -6% and the Z score worked out at 0.78.

For the molecule `CC(C)c1nnc(C2CCN(C(=O)C3c4ccccc4Oc4ccccc43)CC2)o1`, the “% Inhibition” value came to 7% and the Z score is -0.88.

Regarding `CCCCn1ncc(C)c1NC(=O)CC1CC(C)(C)NC(C)(C)C1`, the “% Inhibition” value is -3% and the Z score stood at 0.37. The matching figures for `CC(O)C(=O)N1CCC(C2N(C(=O)OC(C)(C)C)CC2(C)C)CC1` (stereo not drawn): -7% and 0.84. Consider `Cc1cc2c3c([nH]c2cc1S(=O)(=O)N(C)C1CCCCC1)CC(C)(C)CC3=O`, for which the “% Inhibition” value is reported as -12% and the Z score is recorded as 2.36. As to `O=C(CCCc1c[nH]c2ccccc12)N1CCC[C@H](c2nnc3ccccn23)C1`, the “% Inhibition” value is listed as -12% and the Z score is 1.96. `CN1c2cccnc2CN(Cc2ccccn2)CC[C@H]1CO`: the “% Inhibition” value turned out to be 34% and the Z score was -3.81.

Take `Cc1nnc(NC(=O)Cc2sc(C)nc2C)s1`: the “% Inhibition” value is listed as -3% and the Z score was found to be 0.43.

Take `CC1CC1C(=O)NCC(C)(NC(=O)C1CC1C)C(C)C` (stereo not drawn): the “% Inhibition” value is 33% and the Z score is on record as -3.76. In the case of `CCCCN(C)C(=O)c1cn2nc(OCC)ccc2n1`, the “% Inhibition” value is -27% and the Z score came out at 4. For `Cc1ccc(Br)cc1C(=O)Nc1nc2c(s1)C[C@@H](N)CC2` the same measures were 3% and -0.55. `Cc1ccc(C)c(NC(=O)c2nc3c(=O)n(Cc4ccccc4)c4cc(C)ccc4n3n2)c1`: the “% Inhibition” value is recorded as -6% and the Z score worked out at 0.63. With `COc1cccc(CNc2nc(NCc3cccc(OC)c3)n(S(=O)(=O)c3ccccc3)n2)c1`, the “% Inhibition” value is -11% and the Z score stood at 1.62. Consider `O=S(=O)(c1ccccc1)n1c(CNC[C@H](O)C2CC2)cc2cccnc21`, for which the “% Inhibition” value is 4% and the Z score is recorded as -0.59.

For the molecule `O=C(c1ccc2c(c1)CCC=C2)N1CC[C@@](F)(C(=O)O)C1`, the “% Inhibition” value is -4% and the Z score was 0.55. As to `Cc1occc1S(=O)(=O)Cc1ncnn1CC(C)C`, the “% Inhibition” value is -6% and the Z score is 0.92. As for `CN=C(NCc1noc(C)n1)N[C@@H](C)c1ccc(OCC(C)C)cc1`, the “% Inhibition” value is recorded as 3% and the Z score is on record as -0.38. For the molecule `Cc1ccc2c(c1C)OCC2NC(=O)N1CC2CCCC(C1)C2O` (stereo not drawn), the “% Inhibition” value was determined as 5% and the Z score is -0.57. For `CCCc1c(C(=O)N2CCN(c3nc4nccc(-c5cc(Cl)ccc5Cl)n4n3)CC2)cnn1-c1ccccc1` the same measures were 1% and -0.07. As for `CCc1oc(C(=O)N2CCCC2)cc1C`, the “% Inhibition” value is on record as -14% and the Z score worked out at 1.45. Regarding `O=C(Nc1cccc2[nH]ccc12)c1cc(O)nc2ccccc12`, the “% Inhibition” value turned out to be 34% and the Z score is -3.84. For the molecule `Cc1noc(OCC(=O)c2ccc(F)c(Cl)c2)n1`, the “% Inhibition” value was -10% and the Z score amounted to 1.95.

`CC(C)NC(=O)N(C)c1ccc(OC(=O)c2cc(S(=O)(=O)NC(C)C)ccc2Cl)cc1`: the “% Inhibition” value worked out at 1% and the Z score is -0.09. For the molecule `COc1ccc2c(c1)N(C(C)=O)C(C)(C)C[C@@H]2C`, the “% Inhibition” value is -6% and the Z score was 0.75. With `CN1CCOC(CNCC(O)COc2cccc(C(F)(F)F)c2)C1` (stereo not drawn), the “% Inhibition” value is given as 14% and the Z score was -2.85. The matching figures for `CC(C)Cc1nc(NC(=O)c2n[nH]c3ccccc23)n[nH]1`: -14% and 1.68. For `Cc1nn(-c2ccc(F)cc2)c2[nH]nc(NC(=O)Cn3ccnc3)c12` the same measures were -6% and 0.95.

Take `C=CCC1(CC=C)CCCN1C(=O)C[C@H]1C(=O)NCCN1Cc1ccc(OC)cc1F`: the “% Inhibition” value is -9% and the Z score is 1.28.

For `CCc1ncc(C(=O)N2CC[C@H](CO)C[C@@H]2C)s1`, the “% Inhibition” value is recorded as -3% and the Z score is recorded as 0.34.
